# Reference: the supplement of paper PMC6828730
# This is one part of the list. Repeats are few or missing, and single values can be far off.
# Tested on: hiPSC-derived cardiomyocytes
# Experiment: time to death of most cells in well after compound addition (days); higher = less cardiotoxic; extreme values may be limits of the assay
# Conditions: screen: 4; 10 µM
row,Compound,time to death of most cells in well
1,O=c1ncn2nc(Sc3ccc(F)cc3F)ccc2c1-c1c(Cl)cccc1Cl,> 7
2,C=CC(=O)Nc1cccc(Oc2nc(Nc3ccc(N4CCN(C)CC4)cc3OC)ncc2Cl)c1,> 7
3,COc1ccc(-c2ccc3c(N4CCOCC4)nc(N4C[C@@H](C)O[C@@H](C)C4)nc3n2)cc1CO,> 7
4,CCN1C(=CC(C)=O)Sc2ccc(OC)cc21,> 7
5,O=C(Cc1ccc(-c2ccc(OCCN3CCOCC3)cc2)cn1)NCc1ccccc1,> 7
6,Cc1cc(Nc2nc(N[C@@H](C)c3ccc(F)cc3)c(C#N)cc2F)n[nH]1,> 7
7,CC[C@@H]1C(=O)N(C)c2cnc(Nc3ccc(C(=O)N[C@H]4CC[C@H](N5CCN(CC6CC6)CC5)CC4)cc3OC)nc2N1C(C)C [Volasertib (BI 6727)],2.5
8,NC(=O)c1ccc(-c2nc(-c3ccc4c(c3)OCCO4)c(-c3ccccn3)[nH]2)cc1,> 7
9,O=C1NC(=O)C(=Cc2ccc(-c3ccc(F)cc3)o2)S1 (stereo in doubt),> 7
10,Cc1cc(Nc2nc(N[C@@H](C)c3ncc(F)cn3)ncc2Cl)[nH]n1,> 7
11,COc1ccc(-c2ccc3ncc4c(c3c2)n(-c2ccc(N3CCNCC3)c(C(F)(F)F)c2)c(=O)n4C)cn1,3
12,COc1cc2ncnc(Nc3cccc(Cl)c3F)c2cc1OC(=O)N1CCN(C)C[C@H]1C,> 7
13,COc1ccc(CNC(=O)Nc2ncc([N+](=O)[O-])s2)cc1,> 7
14,CC(C)(C)c1cc(C=C(C#N)C#N)cc(C(C)(C)C)c1O [Tyrphostin 9],> 7
15,CCn1c(N)c(C(=O)NC)c(=O)c2ccc(C#CC(C)(O)COC)nc21 (stereo not given),> 7
